Assay results taken from patent US20050249668A1, “Nir-fluorescent cyanine dyes, their synthesis and biological use” (priority 2002, published 2005).

What was measured:
[1] = commercially available fluorochrome used as standard; cited from earlier work
[2] = Fluorescence emission maxima and quantum yields of the dyes (fluorophotometer); format: physicochemical
Procedure: About 20 mg of each fluorochrome dye was dissolved in 100 ml of deionized water. The absorbance was measured individually in three dilutions of the stock solution in deionized water or in 95% ethanol, using a Hitachi U-3000 spectrophotometer to determine the extinction coefficient. The fluorescence emission maxima and intensities of the dyes were obtained using a Hitachi F-4500 fluorophotometer, using dilute solutions in water and exciting at both the main absorption peak as well the short-wavelength shoulder of the main absorption peak. In the cases of NIR2, NIR4, NIR6, and NIR8, the quantum yields were calculated relative to a standard solution of the commercially available fluorochrome Cy5.5 (Amersham-Pharmacia, Piscataway, N.J.) with quantum yield of 0.29. The calculations for NIR1, NIR3, NIR5, and NIR7 were performed relative to a standard solution of another commercially available fluorochrome, Cy7 (Amersham-Pharmacia), with a quantum yield of 0.28.

[3] = Hydrolysis of active ester in water by HPLC; format: physicochemical; details: 20 days in water at 4° C.
Procedure: The cyanine dyes NIR1-NIR4 were converted to reactive N-succinyl esters using diisopropylcarbodiimide (DIPCDI) and N-hydroxysuccinimide in the presence of N-methylmorpholine in dimethylformamide (DMF) according to the reaction scheme shown in FIG. 5A. The formation of active ester was not only confirmed by reverse phase HPLC, but also by reaction with benzylamine. […] Elution time for NIR2 and its active ester were 27.1 and 29.0 min, respectively. […] The active ester was remarkably stable in water. According to PLC analysis, less than 10% of the active ester was hydrolyzed over a period of 20 days in water at 4° C.

Compound | Stokes shift of the fluorescence emission maxima [2] [nm] | also measured
CCN1C(=CC=CC=CC=CC2=[N+](CCCCCC(=O)O)c3ccc(S(=O)(=O)O)cc3C2(C)C)C(C)(C)c2cc(S(=O)(=O)[O-])ccc21 [Cy7] |  | quantum yield of standard solution [1]: 0.28
CC[N+]1=C(C=CC=CC=C2N(CCCCS(=O)(=O)[O-])c3ccc(C(=O)ON4C(=O)CCC4=O)cc3C2(C)C)C(C)(C)c2c1ccc1c(S(=O)(=O)[O-])cc(S(=O)(=O)[O-])cc21.[K+].[K+] [NIR2 active ester] |  | active ester hydrolyzed [3]: less than 10%
CC[N+]1=C(C=CC=CC=C2N(CCCCS(=O)(=O)[O-])c3ccc(C(=O)O)cc3C2(C)C)C(C)(C)c2c1ccc1c(S(=O)(=O)[O-])cc(S(=O)(=O)[O-])cc21.[K+].[K+] [NIR2] | 30 | 
Cy5.5 |  | quantum yield of standard solution [1]: 0.29

Further lines, with some results ahead:

Stokes shift of the fluorescence emission maxima [2] [nm] | Compound | also measured
30 | CC[N+]1=C(C=CC=CC=CC=C2N(CCCCS(=O)(=O)[O-])c3ccc(C(=O)O)cc3C2(C)C)C(C)(C)c2c1ccc1c(S(=O)(=O)[O-])cc(S(=O)(=O)[O-])cc21.[K+].[K+] [NIR1] | 
20 | CC1(C)C(=CC=CC=CC=CC2=[N+](CCCCS(=O)(=O)[O-])c3ccc(S(=O)(=O)[O-])cc3C2(C)C)N(CCCCS(=O)(=O)[O-])c2ccc(C(=O)O)cc21.[K+].[K+] [NIR3] | 
20 | CC1(C)C(=C/C=C/C=C/C2=[N+](CCCCS(=O)(=O)[O-])c3ccc(S(=O)(=O)[O-])cc3C2(C)C)N(CCCCS(=O)(=O)[O-])c2ccc(C(=O)O)cc21.[K+].[K+] [NIR4] | 
